Source: the supplement of paper PMC10369915
The list shows a part of the results. Cut-off read from the data, not from the text of the source: active = 3.2 or more and inactive = the rest. The signal is at background level for most entries.

Legend:
Assay in all cases: enrichment score (SH2-bound / input frequency) (ratio); bacterial display of known human phosphotyrosine sites (pTyr-Var adds point mutants) read by sequencing; higher = stronger binding; tyrosines were phosphorylated by kinases first
Conditions in all cases: peptide library: Human pTyr
[1] = biological target: SHP2 C-SH2 domain E139D
[2] = biological target: SHP2 C-SH2 domain wild-type
[3] = biological target: SHP2 N-SH2 domain L43F
[4] = biological target: SHP2 N-SH2 domain T42A
[5] = biological target: SHP2 N-SH2 domain T52S
[6] = biological target: SHP2 N-SH2 domain wild-type

Measured: enrichment score
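Note: displayed peptides selected on beads carrying the immobilized SH2 domain, with library peptides lacking any tyrosine serving as negative controls.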

MGKDGRGYVPATIKM [STAT6_HUMAN_641]
inactive: [1] 1.13 | [2] 0.982 | [3] 1.14 | [4] 1.07 | [5] 1.11 | [6] 1.32

GVLPSHAYESFLEKK [STAP2_HUMAN_22_YA]
inactive: [1] 0.807 | [2] 0.522 | [3] 0.822 | [4] 0.515 | [5] 0.681 | [6] 0.628

MNPSADEYADSDEDQ [SSRP1_HUMAN_441_YA]
inactive: [1] 1.19 | [2] 0.988 | [3] 1.15 | [4] 1.03 | [5] 1.18 | [6] 1.06

ENLEQEEYEDPDIPE [B3AT_HUMAN_21]
inactive: [1] 1.16 | [2] 1.33 | [3] 1.26 | [4] 1.06 | [5] 1.27 | [6] 1.27

EDSTYDEYENDLGIT [SRC8_HUMAN_489]
inactive: [1] 1.17 | [2] 1.27 | [3] 1.08 | [4] 1.37 | [5] 1.1 | [6] 1.35

FTSTEPQYQPGENLG [SRC_HUMAN_530]
inactive: [1] 0.565 | [2] 0.555 | [3] 0.574 | [4] 0.487 | [5] 0.546 | [6] 0.468

FRWFKDHYQDPVPGI [SPT6H_HUMAN_1515]
inactive: [1] 1.92 | [2] 1.79 | [3] 1.75 | [4] 1.27 | [5] 1.55 | [6] 2.12

AGAGRGNYDAFRGQG [SRRT_HUMAN_836_YA]
inactive: [1] 0.697 | [2] 0.698 | [3] 0.772 | [4] 0.954 | [5] 0.908 | [6] 0.835

VVSEEPIYIVTEYMS [SRC_HUMAN_338]
inactive: [1] 1.5 | [2] 1.33 | [3] 1.34 | [4] 0.988 | [5] 1.39 | [6] 1.42

KDEVASKYATPVPCE [STA5B_HUMAN_682_YA]
inactive: [1] 1.03 | [2] 0.946 | [3] 0.829 | [4] 0.784 | [5] 0.876 | [6] 0.818

EAPVASVYSKLHPPA [STAM2_HUMAN_374_YA]
inactive: [1] 1.03 | [2] 2.71 | [3] 0.739 | [4] 0.6 | [5] 0.602 | [6] 0.601

YSMEAADYREASSQQ [SRC8_HUMAN_453]
inactive: [1] 0.759 | [2] 0.631 | [3] 0.57 | [4] 0.625 | [5] 0.628 | [6] 0.833

NLQERRKYLKHRLIV [STAT2_HUMAN_690]
inactive: [1] 0.599 | [2] 0.8 | [3] 0.51 | [4] 0.592 | [5] 0.774 | [6] 0.674

GTEPEPVYSMEAADA [SRC8_HUMAN_446_YA]
inactive: [1] 1.02 | [2] 0.958 | [3] 1 | [4] 0.93 | [5] 1.1 | [6] 1.05

EKLALAVYEALLHVG [SSBP3_HUMAN_25_YA]
inactive: [1] 2.31 | [2] 2.04 | [3] 1.84 | [4] 1.94 | [5] 2.01 | [6] 2.43

TQILAASYELHKFYH [SPTB2_HUMAN_1805]
inactive: [1] 1.73 | [2] 2.04 | [3] 1.92 | [4] 1.62 | [5] 2.01 | [6] 2.74

AFGISDSYVDGSSFD [SRRM2_HUMAN_145]
inactive: [1] 0.701 | [2] 0.49 | [3] 0.576 | [4] 0.599 | [5] 0.492 | [6] 0.47

ERSTSYGYSRSRSGS [SRSF9_HUMAN_192]
inactive: [1] 0.777 | [2] 0.513 | [3] 0.636 | [4] 0.77 | [5] 0.877 | [6] 0.776

ASMEAADYREASSQQ [SRC8_HUMAN_453_YA]
inactive: [1] 0.792 | [2] 0.484 | [3] 0.566 | [4] 0.586 | [5] 0.74 | [6] 0.818

AYATEAVYESAEAPG [SRC8_HUMAN_470]
inactive: [1] 0.823 | [2] 0.522 | [3] 0.892 | [4] 0.604 | [5] 0.635 | [6] 0.74

DEHSSDPYHSGYEMP [SRRT_HUMAN_92]
inactive: [1] 0.446 | [2] 0.529 | [3] 0.474 | [4] 0.491 | [5] 0.508 | [6] 0.473

DEDQHDAYLERMKEE [SSRP1_HUMAN_452]
inactive: [1] 1.13 | [2] 0.965 | [3] 0.961 | [4] 1.1 | [5] 1.19 | [6] 1.08

KEQERLAYINPDLAL [STIP1_HUMAN_354]
active: [4] 7.41
inactive: [1] 0.881 | [2] 0.669 | [3] 1.35 | [5] 1.17 | [6] 0.872

CRTSGSVYITLKKAD [SRP14_HUMAN_27_YA]
inactive: [1] 1.84 | [2] 1.68 | [3] 1.21 | [4] 1.41 | [5] 1.51 | [6] 1.95

AVQQQEVYGMMPRDE [SPTN1_HUMAN_1176]
inactive: [1] 0.696 | [2] 0.586 | [3] 0.579 | [4] 0.547 | [5] 0.961 | [6] 0.648

MKQVEELYHSLLELG [SPTAN1_HUMAN_1073]
inactive: [1] 0.609 | [2] 0.56 | [3] 0.693 | [4] 0.652 | [5] 0.686 | [6] 0.735

SETTKGAYCLSVSDF [SRC_HUMAN_187]
inactive: [1] 1.3 | [2] 1.19 | [3] 0.96 | [4] 1.07 | [5] 1.14 | [6] 1.22

KTEEAIIYSAGFATI [SPTC1_HUMAN_164_YA]
inactive: [1] 1.51 | [2] 1.32 | [3] 1.32 | [4] 1.02 | [5] 1.76 | [6] 1.69

GTEPEPVYSMEAADY [SRC8_HUMAN_446]
inactive: [1] 0.969 | [2] 0.88 | [3] 0.878 | [4] 0.837 | [5] 0.749 | [6] 0.806

GDGPAVDYENQDVAS [STAP2_HUMAN_322]
inactive: [1] 0.862 | [2] 0.818 | [3] 0.878 | [4] 0.841 | [5] 0.791 | [6] 0.813

KDEVYSKYYTPVPCE [STA5B_HUMAN_682]
inactive: [1] 1.27 | [2] 1.01 | [3] 0.976 | [4] 1.09 | [5] 1.04 | [6] 0.932

DEHSSDPYHSGAEMP [SRRT_HUMAN_92_YA]
inactive: [1] 0.751 | [2] 0.594 | [3] 0.607 | [4] 0.589 | [5] 0.617 | [6] 0.579

EKLALYVYEYLLHVG [SSBP3_HUMAN_25]
inactive: [1] 3.1 | [2] 2.95 | [3] 2.76 | [5] 2.89 | [6] 3.19
active: [4] 3.23

MEELQDDYEDMMEEN [B3AT_HUMAN_8]
inactive: [1] 1.16 | [2] 1.17 | [3] 1.07 | [4] 1.01 | [5] 1.36 | [6] 1.31

AAATEAVYESAEAPG [SRC8_HUMAN_470_YA]
inactive: [1] 0.858 | [2] 0.772 | [3] 0.981 | [4] 0.675 | [5] 0.844 | [6] 1.05

MGDSDDEYDRRRRDK [SRRT_HUMAN_8]
inactive: [1] 0.921 | [2] 0.69 | [3] 0.764 | [4] 0.866 | [5] 0.878 | [6] 0.87
